Results from paper PMC4336329 (PLoS ONE, 2015).
Screen size: about 310,000 compounds; about 2,200 (0.71%) showed an effect of 50% or more. The effect is printed as a negative number. The list shows a part of the results.

Each compound was assayed against human ether-à-go-go-related gene (hERG) potassium channel (human, UniProt Q12809) (assay: primary screen, population patch clamp on CHO cells stably expressing hERG).
Chain of human ether-à-go-go-related gene (hERG) potassium channel (Q12809 whole entry, looked up): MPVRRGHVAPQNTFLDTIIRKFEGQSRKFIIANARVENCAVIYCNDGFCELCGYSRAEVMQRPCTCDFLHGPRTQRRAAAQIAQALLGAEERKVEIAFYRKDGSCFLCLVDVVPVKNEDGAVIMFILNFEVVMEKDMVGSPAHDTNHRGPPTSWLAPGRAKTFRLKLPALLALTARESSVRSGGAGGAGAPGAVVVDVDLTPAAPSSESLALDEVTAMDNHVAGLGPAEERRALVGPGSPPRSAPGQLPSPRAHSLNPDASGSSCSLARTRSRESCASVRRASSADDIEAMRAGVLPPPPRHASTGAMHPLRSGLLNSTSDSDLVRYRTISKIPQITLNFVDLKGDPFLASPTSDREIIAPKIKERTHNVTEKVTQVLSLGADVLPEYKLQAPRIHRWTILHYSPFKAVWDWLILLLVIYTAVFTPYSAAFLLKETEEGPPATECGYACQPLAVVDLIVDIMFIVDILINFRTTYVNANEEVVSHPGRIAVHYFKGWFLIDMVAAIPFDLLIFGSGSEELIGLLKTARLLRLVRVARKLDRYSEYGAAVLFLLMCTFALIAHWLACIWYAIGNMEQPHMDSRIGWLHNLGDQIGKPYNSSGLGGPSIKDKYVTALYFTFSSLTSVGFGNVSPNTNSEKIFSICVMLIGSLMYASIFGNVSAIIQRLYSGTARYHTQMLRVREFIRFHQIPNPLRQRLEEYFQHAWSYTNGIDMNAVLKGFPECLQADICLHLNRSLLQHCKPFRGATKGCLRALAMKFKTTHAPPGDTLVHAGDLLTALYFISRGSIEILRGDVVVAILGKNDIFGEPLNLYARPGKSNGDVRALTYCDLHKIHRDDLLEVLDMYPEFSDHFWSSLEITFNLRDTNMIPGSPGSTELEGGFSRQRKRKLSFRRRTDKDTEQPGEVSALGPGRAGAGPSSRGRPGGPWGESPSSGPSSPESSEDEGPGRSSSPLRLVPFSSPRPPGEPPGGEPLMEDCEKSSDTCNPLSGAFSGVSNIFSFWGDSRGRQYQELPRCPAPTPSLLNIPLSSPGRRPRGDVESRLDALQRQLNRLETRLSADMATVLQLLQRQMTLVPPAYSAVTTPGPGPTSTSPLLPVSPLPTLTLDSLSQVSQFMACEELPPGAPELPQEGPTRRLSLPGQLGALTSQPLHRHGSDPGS

SMILES | hERG current change (%, negative = inhibition) at 1uM
Cc1cccc(C)c1NC(=O)CN(C)C(=O)c1ccccc1Sc1ccccc1C#N | 23.3%
O=C(Nc1ccccc1)N1CCN(c2cccc(C(F)(F)F)c2)CC1 | 17.5%
O=C(Nc1ccc(C(F)(F)F)cc1)c1ccc2ncsc2c1 | 13.1%
Cn1cccc1/C=N/NC(=O)C12CC3CC(CC(C3)C1)C2 | 8.06%
O=C(OCCc1cc2ccccc2c(=O)o1)c1ccc(C(F)(F)F)cc1 | 16.3%
Cc1ccc2c(c1)CCCN2S(=O)(=O)c1cccc(C(=O)Nc2ccccc2C(=O)O)c1 | 0.441%
O=C(NCc1ccc(F)cc1)C1CCN(c2cnccn2)CC1 | -33.6%
O=C(Nc1c(Cl)ccc2nsnc12)c1cccnc1 | 12.2%
CCCNC(=O)Cc1c(O)c2ccccc2[nH]c1=O | 16.8%
CCOC(=O)N1CCc2c(sc(NC(=O)C3=COCCO3)c2C(N)=O)C1 | 8.89%
CN(CCN1CCOCC1)Cc1nc(-c2cccs2)no1 | 12.8%
COc1cc2c(cc1OC)CC[N+](C)=C2.[I-] | 13.5%
O=C(NCc1ccc2c(c1)OCO2)c1ccc(CS(=O)Cc2ccc(Cl)cc2)o1 (stereo not drawn) | 3.03%
Cc1ccc2nc(NC(=S)NC(=O)c3cccs3)sc2c1 | 10.1%
O=C(CSc1nc2ccccc2s1)N1N=C(c2cccs2)CC1c1ccc(F)cc1 (stereo not drawn) | 4.73%
O=c1[nH][nH]c(C(F)(F)F)c1C=NCc1cccs1 | 5.98%
CCc1ccc(OCc2cnc(Cl)s2)cc1 | 9.33%
CCCCn1c(SCC(=O)Nc2ccc(C)c(S(=O)(=O)N3CCOCC3)c2)nnc1C(CC)N(C)C (stereo not drawn) | -6.49%
CN(C)c1ccc(P(=O)(OC2CCCCC2)C(O)c2cccnc2)cc1 (stereo not drawn) | -8.69%
O=[N+]([O-])c1cc(S(=O)(=O)N2CCCC2)ccc1OCc1ccccc1 | 12.9%
CC(=O)Nc1ccc(NC(=O)CSc2nc3c([nH]c4ccccc43)c(=O)n2-c2ccccc2F)cc1 | 22.6%
CCn1c(SCCOc2ccc(OC)cc2)nnc1C(CO)NC(=O)c1ccc(OC)cc1 (stereo not drawn) | -2.03%

SMILES | hERG current change (%, negative = inhibition) at 1uM
CCOc1ccc(-c2nnc(N3CCOCC3)c3ccccc23)cc1 | 3.43%
Cc1ccc(-c2nc(NC(=O)c3nn(C)cc3[N+](=O)[O-])sc2C)cc1C | -0.746%
CCOc1ccccc1NC(=O)N1CCCN(c2ncccc2C#N)CC1 | 12.8%
Nc1nc(N)c(Cc2ccc(Cl)cc2Cl)c(N)n1 | 19.5%
CC(=O)Nc1ccc(S(=O)(=O)Nc2nnc(Cc3ccc(Cl)cc3)s2)cc1 | 14.9%
O=C(O)c1cccc(NC(=S)NC(=O)c2ccncc2)c1 | 8.94%
Cc1nn(C)c(C)c1CCC(=O)N1CCCC(N2CCN(c3ccc(F)cc3)CC2)C1 (stereo not drawn) | 0.801%
O=C(CSc1nnc(-c2ccccn2)o1)Nc1ccccc1F | 5.57%
CC(C)N1C(=S)SC(C)(C)C1n1oc(=O)n(-c2cccc(Cl)c2)c1=O (stereo not drawn) | 8.79%
CCCC(=O)Nc1cccc(NC(=O)c2ccccc2Br)c1 | 7.21%
O=C(CCc1ccc(S(=O)(=O)N2CCOCC2)cc1)Nc1nc(COc2ccccc2)cs1 | 4.66%
CN1C(=O)NC(=O)/C(=C/c2ccc([N+](=O)[O-])s2)C1=O | 7.77%
CCCCn1nc2cc(C(=O)NCc3ccc4c(c3)OCO4)ccc2c1OCC | 30.6%
C=CC1=C(C(=O)O)N2C(=O)C(NC(=O)Cc3ccccc3)C2SC1 (stereo not drawn) | 12.1%
Cc1noc(C)c1C(=O)Nc1sc(C)c(C)c1C#N | 10.8%
Cc1cc(C(=O)OCC(=O)NCc2ccccc2)c(C)o1 | 8.98%
CN(C)c1nc(NCc2ccccc2)nc(SCC(=O)Nc2ccccc2Cl)n1 | 17.1%
C/C(=N\Nc1ccc2nncn2n1)c1ccccn1 | 17.7%
CC(C)c1ccc(/C=C2\SC(=S)N(CCC(=O)N3CCCCC3CCO)C2=O)cc1 (stereo not drawn) | 23.5%
CCCc1cc(=O)[nH]c2nnc(SCC(=O)Nc3cc(C)on3)n12 | 15.4%
CCOC(=O)CN(C(=O)COc1nc(-c2ccccc2)cc(C)c1C#N)c1ccc(F)cc1 | 6.09%
COc1ccc(CC2(CO)CCN(Cc3cccnc3)CC2)cc1 | 1.4%

SMILES | hERG current change (%, negative = inhibition) at 1uM
Cc1cccn2c(=O)c(/C=C3\SC(=S)NC3=O)c(NCCCN3CCOCC3)nc12 | 7.48%
CCOC(=O)c1ccc2[nH]c3c(c2c1)CCCCC3=O | 11.8%
O=[N+]([O-])c1ccccc1S(=O)(=O)N(CC(O)CN1CCCCC1)c1ccccc1 (stereo not drawn) | 2.79%
CC(=O)Nc1nonc1-c1nc2ccccc2n1Cc1nnc(C)o1 | 4.4%
CC(=O)N1CCCc2cc(S(=O)(=O)CCC(=O)N3CCN(c4cccc(C)c4)C(C)C3)ccc21 (stereo not drawn) | 9.91%
O=C(COC(=O)COc1ccc(Cl)cc1)Nc1ccc(N2CCOCC2)cc1 | 18.3%
O=C1CCN(Cc2ccccc2)CCN1[C@H](COc1ccccc1)Cc1ccccc1 | -7.61%
Nc1cc(-c2ccc(Cl)cc2)nn1S(=O)(=O)c1ccccc1 | 14.5%
CCCS(=O)(=O)N1CCN(Cc2ccccc2C(F)(F)F)CC1.O=C(O)C(=O)O | -1.7%
COc1cccc(CCC(=O)N2CCC(n3nccc3NC(=O)C3CCOC3)CC2)c1 (stereo not drawn) | 14.1%
CCn1c(CNc2nc3ccccc3n2C(C)C)nc2ccccc21 | -10.1%
Nc1nc2c(s1)COc1ccccc1-2 | 13.7%
CC1(CCc2ccccc2)NC(=O)N(CC(=O)Nc2ccccc2)C1=O (stereo not drawn) | 10.2%
COc1cccc(NC(=O)c2ccc3snnc3c2)c1 | 10.3%
CC1=C(C(=O)Nc2ccc(CC(=O)NCc3ccc(OC(C)C)cc3)cc2)SCCO1 | 10.4%
Cc1cc(C)c(C(=O)COc2cccnc2[N+](=O)[O-])cc1C | 8.78%
O=C(COC(=O)c1c2c(nc3ccccc13)CCCCC2)NCc1ccc2c(c1)OCO2 | 8.11%
Cc1ccnc(NC(=O)CCNS(=O)(=O)c2ccc(C)c(C)c2)c1 | 8.17%
CCN(CC)CCN1C(=O)c2ccccc2NC1c1ccc(Br)cc1 (stereo not drawn) | -82.8%
COc1cc(C(=O)O[C@H]2C/C(C)=C/CC[C@@]3(C)O[C@@H]3[C@H](O)[C@@H]2C(C)C)cc(OC)c1OC | 7.07%
O=C(Nc1ccc(Cl)c(Cl)c1)N1CC=CCC1 | 7.3%
COCCCNC(=O)CC1Oc2ccccc2NC1=O (stereo not drawn) | 4.19%

SMILES | hERG current change (%, negative = inhibition) at 1uM
Cc1ccc(C)c(N2CCN(C(=O)CNS(=O)(=O)c3cccs3)CC2)c1 | 7.88%
COC(=O)C1=C(C(=O)OC)[C@@H]2N(C)c3ccc(OC)cc3[C@@]23C[C@@H](C(=O)OC)N(S(=O)(=O)c2ccc([N+](=O)[O-])cc2)C3=N1 | 8.39%
CCN(CC)C(=O)COc1ccc2oc(C)c(C(=O)OC(C)C)c2c1 | 11.8%
Cc1c(C(=O)NCCN2C(=O)S/C(=C\c3cccnc3)C2=O)cccc1[N+](=O)[O-] | -7.45%
CN=C(C)/C(C(=O)OC)=C(/O)c1ccccc1F | 10.5%
CNC(=O)CCSc1ccc(C)cc1 | 22.1%
CCN(CC)S(=O)(=O)c1ccc(NN)nc1 | 6.6%
COc1ccccc1N1CCN(CCCCOc2cccc3ccccc23)CC1.Cl | 9.44%
Cc1cc(C)cc(-n2ccnc2SCC(=O)Nc2ccc3c(c2)OCCO3)c1 | 4.72%
COc1ccc(NC(=O)CC2C(=O)N(c3ccc(OC)cc3)C(=S)N2NC(=O)c2cccc(F)c2)cc1 (stereo not drawn) | 7.6%
O=C(NC(=S)Nc1cccc(Cl)c1)c1cncc(Br)c1 | 13.3%
CC(C)(C)OC(=O)[C@H](Cc1ccccc1)NC(=O)c1[nH]cnc1C(=O)Nc1ccc(Cl)cc1 | 14%
O=C(c1ccco1)N1CCN(C(=O)c2cnn3c2NC(c2cccs2)CC3C(F)(F)F)CC1 (stereo not drawn) | -3.66%
CCOC(=O)CN(C(=O)COc1nc(C)cc(C)c1C#N)c1ccc(F)cc1 | 0.234%
Cc1ccc2nsnc2c1NC(=O)c1ccccc1[N+](=O)[O-] | 15.7%
c1ccc(-c2ccncc2)nc1 | 20.9%
CCOc1ccccc1NC(=O)CSc1nnc(CNC(=O)c2ccccc2F)o1 | 7.37%
CC(C)(Oc1ccc(Cl)cc1)C(=O)N/N=C/c1cn[nH]c1-c1ccccc1 | 3%
C=CCn1c(=O)c2ccccc2n2c(Sc3nnnn3-c3ccccc3)nnc12 | 9.73%
Cc1ccc(/C=N/Nc2nncn2N)cc1.Cl | 17.9%
C/C(=N/OC(=O)c1cccc(C(F)(F)F)c1)c1cnccn1 | 4.48%
